± gives the standard deviation of the averaged measurements. The list shows a part of the results.
These sequences were tested on PfAP2-LT AP2 domain (GST-tagged) (assay: gcPBM binding intensity (ln(normalized median fluorescence intensity)); higher = stronger DNA binding).
Outline: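 In this array assay, P. falciparum DNA-binding domains with a GST tag, expressed in E. coli, were applied for 1 h to primer-extended double-stranded 36-bp intergenic genomic probes and negative controls on an Agilent 4 × 180k array. Bound protein was visualised with Alexa488 anti-GST antibody at 488 nm. Binding intensity is the highest Masliner-normalised natural-log median intensity across replicate spots of either probe orientation.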

Sequence	gcPBM binding intensity (ln)
AAATATTTATAGGTTTGTACTTATAAATAAAAAAAA [XGTACX_site7360]	8.48 ± 0.42
TTTATAAAAATGAACACACACATATATATATATATA [CACACA_site3493]	9.61 ± 0.29
AATATGAAAAGATGAACAACAAAATGGAGAACAATA [GTGCAC_negctrl_site612]	9 ± 0.49
TTCTTGTATTTTCATAGTACATATAATGTCGTATTA [XGTACX_site600]	8.88 ± 0.42
AATCACAAATAAAATAATATGACACAATATAAAATA [CACACA_negctrl_site537]	8.8 ± 0.52
TACTTACACTGTTTTTGTACTTATTTCCCTTTTATT [XGTACX_site2158]	9.14 ± 0.54
TAATTTCTTATGTATTGTACAAATAATGTATGATAT [XGTACX_site270]	8.69 ± 0.41
GCGTTATTAAATAATTCACACACATATATATATATA [CACACA_site8711]	9.68 ± 0.042
GAACGCCATTCACATAAAGGGATACATAAATAAATA [XGTACX_negctrl_site330]	8.64 ± 0.69
AAGAAAAACTTTACGTGTACCAAACGTCATGCCAAC [XGTACX_site2575]	8.81 ± 0.49
TACAAGCCCAATTCAAGTACATATATATATATATAT [XGTACX_site5569]	9.85 ± 0.14
AGTTTGTCAATCAACACACACCTATTTATTATATAT [CACACA_site6030]	9.12 ± 0.33
TATTTATGTATATGCTGTACGCATTTGTGAAACATA [XGTACX_site4688]	8.77 ± 0.47
AACCAATTAGAAGGATCCAGAACTTATTTGTTTTTA [CACACA_negctrl_site1744]	8.61 ± 0.48
TAAACTTTCCAGTGTTGTACATAATAATTATTATAT [XGTACX_site8896]	8.71 ± 0.4
AAAGATATGAAATATACACACTTCTTTGGTATTATT [CACACA_site6352]	8.86 ± 0.45
ATTCATTCATATGTTACACACACACGCCCACATAAA [CACACA_site7513]	9.72 ± 0.3
TTATATATATATATATATATTTACATAATAATATGT [GTGCAC_negctrl_site388]	9.05 ± 0.19
TAAAAAAAGGTTATTGGTACACACATATGTATATAT [XGTACX_site1029]	9.09 ± 0.38

Sequence	gcPBM binding intensity (ln)
TAATATTCAATTATACGTACACATATATATATATAT [XGTACX_site4245]	9.405 ± 0.035
TATGAAAGAAATAGTACACACATAAACATTTGTAAA [CACACA_site2783]	9.14 ± 0.43
GTTGCGTATATATACACACATACATATATATATATA [CACACA_site1607]	9.695 ± 0.021
TTATATAATAAAAATTGTACATATTATATATATATT [XGTACX_site3427]	8.59 ± 0.42
AAAAAAAAAAAAGAAACACACATATATATATATATA [CACACA_site140]	9.9 ± 0.071
GTTTGATTAAACTTGACACACATATATATAAATATA [CACACA_site1784]	8.71 ± 0.44
AGAAAATATACAAAACGTACTTATATATTATATCTA [XGTACX_site3104]	8.66 ± 0.45
GTTAGAGGGAAAAAGAGTACATATATGTGGATAATT [XGTACX_site2064]	9.06 ± 0.43
TCATATATCATAACAGTGCAAAAAAAAAAAAATTAT	8.79 ± 0.49
ACATATATATATAAATATATATATATATAAATATAT [CACACA_negctrl_site895]	9.03 ± 0.28
GTTGAACATAGATGCACACACATAAAATAAAAAAAA [CACACA_site5353]	9.37 ± 0.42
TGTTTAAATTTTTTGTTTTTTTTTTTATAAAGCAAA [TGCATGCA_negctrl_site313]	8.01 ± 0.58
TATATTTTTTTAAAAAGTACTTTGTATATATATATA [XGTACX_site1300]	8.61 ± 0.42
TGAAGGTCAGTTCACAGTACCCAGTAACTCTACGGA [XGTACX_site2554]	8.62 ± 0.42
TTGTTGTTATTTAAAACACACATCAATCATCTTAAC [CACACA_site1142]	8.75 ± 0.35
ATTTTTTTTTCTTTCGCACACGTGAAAGAATTTCTA [CACACA_site2052]	8.96 ± 0.49
TTAAATTAAAACAAATGTACAAAGTGCATATTTTTT [XGTACX_site8143]	8.44 ± 0.49
ATATTATATTATATAACACACATTTTTCATAACACT [CACACA_site407]	8.95 ± 0.34
ATAATTTAATACTAGTGTACAGAAAAAAAAAAAAAA [XGTACX_site6756]	8.62 ± 0.52

Sequence	gcPBM binding intensity (ln)
ATAAAAAAATAAATTAGTACATATATATATATATAT [XGTACX_site6971]	9.51 ± 0.32
TTACGCATACTAATTACACACAAATAGATGAATATA [CACACA_site1338]	8.91 ± 0.38
TATTGTTATGTCGTTATTAACTTTCTTTAATTAATT [CACACA_negctrl_site174]	8.68 ± 0.43
TGAAAGTTCAATAATTGTACATGTGGAAATTCATAC [XGTACX_site1378]	8.77 ± 0.42
AAATATTCATAGTATACACACATTTATATATAATCA [CACACA_site771]	8.84 ± 0.34
AAAATTATAAATCTTGCACACAAAAAAAATAATAAA [CACACA_site8771]	8.88 ± 0.51
TTTTCATTTATGTATATATTTATTTTGATTTAATGT [GTGCAC_negctrl_site607]	8.7 ± 0.58
AATTATTTTATGTGAGGTACACCACACATGAAGGGG [XGTACX_site8450]	9.43 ± 0.23
TAAATATATTCAATCACACACATTCGTTTTTTTTTT [CACACA_site234]	8.92 ± 0.57
TATATATATTTAAGGTGTACATAAATAACAAAATAT [XGTACX_site2641]	8.82 ± 0.47
AAGTGTATACAGAAGAGTACAAACAATTTTTTTCTT [XGTACX_site7387]	8.82 ± 0.48
ATATTTCGTCTAAAAAGTACACAACAATAAAAAGTA [XGTACX_site6668]	8.76 ± 0.44
TTTTTTAAATAATATTGTACAAAAAATGTATAAATA [XGTACX_site3010]	8.44 ± 0.42
TTAGGTTTATACACTACACACATTATTCATAAAAAA [CACACA_site871]	8.78 ± 0.35
TTTTGTTATGGTTTGATGCACTTATATATAAATATT [GTGCAC_site9705]	8.87 ± 0.37
CACAGTGATATAAAAACACACATGAATTATAATTTC [CACACA_site1667]	8.96 ± 0.36
ATGTAGATAAAACGTGTGCACATGTTTTTTGTTATT	10.3 ± 0.2
ATATATATATATATATGTACTTATTACCAATGTTAG [XGTACX_site1896]	9.66 ± 0.25
AAGCCCATTATTAAATGTACAAAATTTTATAAACTA [XGTACX_site7800]	8.52 ± 0.41
